We go through 40 sequences from the supplement of paper PMC10441789.

This is one part of the list. Antibody binding of pooled human sera (four to six donors per pool; dilution not stated) to peptides of the Trypanosoma cruzi antigen TSSA on microarrays. Quantile-normalised fluorescence in arbitrary units, mean of duplicate arrays; higher = more binding. No active / inactive call. The uninfected pools are read here as the healthy donors of the same country. The strongest signals lie near the top of the scale (about 60,000).

In the experiment the test system is pooled sera of chronic Chagas disease patients, Argentina. Nature of the experiment: antibody binding signal (normalised fluorescence) (arbitrary fluorescence units); higher = stronger serum antibody binding to peptide. On the procedure:
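Microarray of 15-residue peptides over residues 30-55 of Trypanosoma cruzi TSSAII, each with 1 to 10 substitutions at naturally variable positions, probed with one serum pool per country.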
Sequence KDNKPATGEAPSPPG registered an antibody binding signal of 45000.

The sequence DNKPATGEAPSPPGA came in with an antibody binding signal of 45400.

STPPSGTEKKPATGG registered an antibody binding signal of 50500.

Consider KKAATGEAPSQPGAS, for which the antibody binding signal turned out to be 9150.

Regarding DKKTATGEAPSQSGA, the antibody binding signal was determined as 11200.

GKEKKTATGETPSQP returned an antibody binding signal of 5700.

For the sequence TPPSGTDNKPAAGGA, the antibody binding signal worked out at 31800.

With SGKEKKAAAGGAPSQ, the antibody binding signal stood at 3460.

Sequence TDNKAAAGEAPSPSG yielded an antibody binding signal of 264.

For GTEKKTAAGEAPSPS, the antibody binding signal came to 557.

The sequence SSTPPSGKDNKAAAG had an antibody binding signal of 33400.

In turn, KDNKTATGEAPSPSG gave an antibody binding signal of 16000.

As for GKDNKTATGGAPSPP, the antibody binding signal stood at 764.

The sequence PPSGKDKKTATGGAP gave an antibody binding signal of 1740.

Sequence SGKENKTATGETPSP displayed an antibody binding signal of 1700.

In turn, SSTPPSGKDNKPATG came in with an antibody binding signal of 16300.

On to SSTPPSGTENKAATG, for which the antibody binding signal turned out to be 49200.

As for KENKPATGETPSQSG, the antibody binding signal turned out to be 37900.

In the case of SGTENKAAAGGAPSP, the antibody binding signal was found to be 39000.

The sequence GKDNKTAAGGAPSQP yielded an antibody binding signal of 375.

Regarding KPATGGTPSPSGASS, the antibody binding signal is 415.

SGKDNKPATGETPSP had an antibody binding signal of 37500.

Regarding TDNKPAAGETPSPSG, the antibody binding signal was found to be 1700.

Sequence PPSGKEKKPAAGEAP came in with an antibody binding signal of 1420.

For GKDKKAAAGGTPSQP, the antibody binding signal was determined as 286.

Consider STPPSGKENKPAAGG, for which the antibody binding signal came out at 27700.

Turning to SGKDNKAATGEAPSP, the antibody binding signal is 23400.

Consider DNKAAAGETPSPSGA, for which the antibody binding signal was 391.

Regarding PPSGKEKKTATGEAP, the antibody binding signal worked out at 11300.

With SGKDKKAAAGETPSP, the antibody binding signal was determined as 637.

Turning to KDKKAAAGETPSPSG, the antibody binding signal is 163.

With GKDNKTAAGGTPSQP, the antibody binding signal amounted to 1180.

The sequence KEKKAAAGEAPSQPG registered an antibody binding signal of 2640.

PPSGTENKTAAGGAP: the antibody binding signal turned out to be 46600.

For the sequence DNKTAAGGAPSQSGA, the antibody binding signal worked out at 443.

TDNKPAAGETPSQPG displayed an antibody binding signal of 4780.

SGTDNKAATGEAPSQ: the antibody binding signal was 25200.

GKDKKPATGGTPSQS: the antibody binding signal stood at 539.

PSGKENKAAAGGAPS yielded an antibody binding signal of 8590.

Sequence DNKTATGGTPSPPGA came in with an antibody binding signal of 347.
